# Measurements from a collection of fitness landscapes (doi:10.1016/j.celrep.2020.107928).
# In all, about 81,000 sequences were measured (“one-hybrid fitness for binding parS DNA”: median about -0.17, highest 2% from about 0.51 on). Some of the results follow.
# B1: Caulobacter ParB omega fusion; a variant is named by its letters at X, in order, B8GW30 (parent)
# chain: MESVVVGEPGMSEGRRGLGRGLSALLGEVDAAPAQAPGEQLGGSREAPIEILQRNPDQPRRTFREEDLEDLSNSIREKGVLQPILVRPSPDTAGEYQIVAGERAWRAAQRAGLKTVPIMVRELDDLAVLEIGIIENVQRADLNVLEEALSYKVLMEKFERTQENIAQTIGKSXSHVANXMRLLXLPDEVQSYLVSGELTAXHARAIAAAADPVALAKQIIEGGLSVRETEALARKAPNLSAGKSKGGRPPRVKDTDTQALESDLSSVLGLDVSIDHRGSTGTLTITYATLEQLDDLCNRLTRGI
# Variants of: B1
# Assay: one-hybrid fitness for binding parS DNA (scaled: cognate 1, non-cognate 0); higher = stronger binding
# Conditions: with parS DNA site
# How it was run: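 In E. coli USO, a HIS3 reporter with its site placed 19 bp from the promoter was used to select Caulobacter ParB variants randomised at four specificity codons. Growth lasted 48 hours at 37°C on histidine-free M9 containing 0.1 mM IPTG and 5 mM 3-AT. Fitness was taken as the log change in variant-to-wild-type read ratio from Illumina sequencing of pre- and post-selection plasmids, rescaled between the non-cognate and cognate sites.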
row,Variant,one-hybrid fitness for binding parS DNA
1,AAER,≤ 0.2
2,MIIR,≤ 0.2
3,MIYR,≤ 0.2
4,SARS,≤ 0.2
5,SFTE,≤ 0.2
6,KQSR,≤ 0.2
7,CLGL,≤ 0.2
8,RRTW,≤ 0.2
9,LKHY,≤ 0.2
10,VEEG,≤ 0.2
11,KRTV,≤ 0.2
12,QYIR,≤ 0.2
13,AGLY,≤ 0.2
14,MNVT,≤ 0.2
15,LWRK,≤ 0.2
16,HATP,≤ 0.2
17,ERWC,≤ 0.2
18,WMLR,≤ 0.2
19,YKWS,≤ 0.2
20,LIRG,≤ 0.2
21,TGDN,≤ 0.2
22,GYEV,≤ 0.2
23,QQMR,≤ 0.2
24,EGIR,≤ 0.2

row,Variant,one-hybrid fitness for binding parS DNA
1,YSPA,≤ 0.2
2,RSYK,≤ 0.2
3,FAMC,≤ 0.2
4,VKLQ,≤ 0.2
5,PMVL,≤ 0.2
6,QHLE,≤ 0.2
7,QIRH,≤ 0.2
8,RAHV,≤ 0.2
9,ICRR,≤ 0.2
10,RNRH,≤ 0.2
11,RIPY,0.232
12,DYGS,≤ 0.2
13,IRIC,≤ 0.2
14,RATL,≤ 0.2
15,SVMW,≤ 0.2
16,LLAE,≤ 0.2
17,WPHN,≤ 0.2
18,DYGR,≤ 0.2
19,PEMG,≤ 0.2
20,CMKL,≤ 0.2
21,RVVG,0.942
22,TEAA,≤ 0.2
23,CATF,≤ 0.2
24,PAWE,≤ 0.2

row,Variant,one-hybrid fitness for binding parS DNA
1,RLMR,≤ 0.2
2,DERS,≤ 0.2
3,QMRY,≤ 0.2
4,RKDN,0.329
5,GKLS,≤ 0.2
6,ICQS,≤ 0.2
7,HRQN,≤ 0.2
8,PPMT,≤ 0.2
9,VPDE,≤ 0.2
10,GQVQ,≤ 0.2
11,YFGS,≤ 0.2
12,PPGY,≤ 0.2
13,DNIG,≤ 0.2
14,KPRI,≤ 0.2
15,SWPL,≤ 0.2
16,NWKR,≤ 0.2
17,GLNM,≤ 0.2
18,GFPR,≤ 0.2
19,RNAH,≤ 0.2
20,QEWT,≤ 0.2
21,GNLS,≤ 0.2
22,MGMT,≤ 0.2
23,TTMC,≤ 0.2
24,WVAC,≤ 0.2

row,Variant,one-hybrid fitness for binding parS DNA
1,QAKY,≤ 0.2
2,CPAM,≤ 0.2
3,QNER,≤ 0.2
4,THAR,≤ 0.2
5,GQWG,≤ 0.2
6,HRRG,0.355
7,GPLI,≤ 0.2
8,IGRW,≤ 0.2
9,SGSV,≤ 0.2
10,TWDE,≤ 0.2
11,IVNW,≤ 0.2
12,DIPP,≤ 0.2
13,QAYT,≤ 0.2
14,RNQH,≤ 0.2
15,RGAS,0.734
16,SQMG,≤ 0.2
17,LARG,≤ 0.2
18,TYNN,≤ 0.2
19,NNSM,≤ 0.2
20,YLSK,≤ 0.2
21,TKTL,≤ 0.2
22,WHHR,≤ 0.2
23,IVYS,≤ 0.2
24,AIGT,≤ 0.2

row,Variant,one-hybrid fitness for binding parS DNA
1,TFPE,≤ 0.2
2,KLND,≤ 0.2
3,LPTR,≤ 0.2
4,VCPS,≤ 0.2
5,DPQI,≤ 0.2
6,RWTI,≤ 0.2
7,QICI,≤ 0.2
8,GTMM,≤ 0.2
9,TGKR,≤ 0.2
10,SEMK,≤ 0.2
11,PFAA,≤ 0.2
12,CLTK,≤ 0.2
13,VYYC,≤ 0.2
14,HRDW,≤ 0.2
15,GMLR,≤ 0.2
16,CGHT,≤ 0.2
17,HDNK,≤ 0.2
18,PRHV,≤ 0.2
19,EIHM,≤ 0.2
20,RLAM,0.342
21,RRSL,≤ 0.2
22,LCIW,≤ 0.2
23,EEAG,≤ 0.2
24,PSPK,≤ 0.2

row,Variant,one-hybrid fitness for binding parS DNA
1,RNFC,0.627
2,ESKV,≤ 0.2
3,QVLF,≤ 0.2
4,EYSC,≤ 0.2
5,YADT,≤ 0.2
6,WSGV,≤ 0.2
7,QLTK,≤ 0.2
8,RENR,≤ 0.2
9,CEST,≤ 0.2
10,LTLC,≤ 0.2
11,CSYC,≤ 0.2
12,PLNK,≤ 0.2
13,TVGS,≤ 0.2
14,MWTG,≤ 0.2
15,GETS,≤ 0.2
16,RAMR,≤ 0.2
17,ERNS,≤ 0.2
18,DINC,≤ 0.2
19,CEER,≤ 0.2
20,LLDC,≤ 0.2
21,GLQC,≤ 0.2
22,PPNP,≤ 0.2
23,WRTT,≤ 0.2
24,CQKR,≤ 0.2

row,Variant,one-hybrid fitness for binding parS DNA
1,PCGC,≤ 0.2
2,VYRS,≤ 0.2
3,RTLN,0.43
4,YNAF,≤ 0.2
5,LPEI,≤ 0.2
6,RERI,≤ 0.2
7,HYTL,≤ 0.2
8,TNSW,≤ 0.2
9,SPDA,≤ 0.2
10,QPYI,≤ 0.2
11,ASLF,≤ 0.2
12,DAAY,≤ 0.2
13,LTVV,≤ 0.2
14,TKWR,≤ 0.2
15,TYHD,≤ 0.2
16,GDKK,≤ 0.2
17,GWLA,≤ 0.2
18,HFPS,≤ 0.2
19,RIIG,0.924
20,KKDS,≤ 0.2
21,QVKC,≤ 0.2
22,NRHQ,≤ 0.2
23,DLPN,≤ 0.2
24,LPVW,≤ 0.2

row,Variant,one-hybrid fitness for binding parS DNA
1,LPTK,≤ 0.2
2,FQNL,≤ 0.2
3,NLAD,≤ 0.2
4,PLRH,≤ 0.2
5,DEDT,≤ 0.2
6,HDPL,≤ 0.2
7,KLSS,≤ 0.2
8,RPSN,≤ 0.2
9,HMNE,≤ 0.2
10,YVRD,≤ 0.2
11,PPTA,≤ 0.2
12,KHQF,≤ 0.2
13,VTVM,≤ 0.2
14,GLMT,≤ 0.2
15,FCNV,≤ 0.2
16,YPGT,≤ 0.2
17,HRAT,≤ 0.2
18,MTAD,≤ 0.2
19,ASAD,≤ 0.2
20,GSSS,≤ 0.2
21,QTGP,≤ 0.2
22,MWGG,≤ 0.2
23,TNGP,≤ 0.2
24,MAKI,≤ 0.2

row,Variant,one-hybrid fitness for binding parS DNA
1,QLKP,≤ 0.2
2,TNSL,≤ 0.2
3,KRAV,≤ 0.2
4,SAWM,≤ 0.2
5,NKAW,≤ 0.2
6,SKKR,≤ 0.2
7,TREE,≤ 0.2
8,PLPL,≤ 0.2
9,YKES,≤ 0.2
10,WRCT,≤ 0.2
11,QATC,≤ 0.2
12,LQLT,≤ 0.2
13,ITPR,≤ 0.2
14,QYSK,≤ 0.2
15,QKYV,≤ 0.2
16,HHWT,≤ 0.2
17,PGES,≤ 0.2
18,NAPQ,≤ 0.2
19,IMKR,≤ 0.2
20,HLNN,≤ 0.2
21,QFFG,≤ 0.2
22,FWDR,≤ 0.2
23,THNG,≤ 0.2
24,TQIG,≤ 0.2

row,Variant,one-hybrid fitness for binding parS DNA
1,AGKF,≤ 0.2
2,QPKF,≤ 0.2
3,NDGD,≤ 0.2
4,DAGI,≤ 0.2
5,NVLR,≤ 0.2
6,KNFS,≤ 0.2
7,PMQS,≤ 0.2
8,RSGS,0.983
9,RFAY,0.425
10,RIGS,0.959
11,PMSS,≤ 0.2
12,ASAV,≤ 0.2
13,EWTN,≤ 0.2
14,AQIN,≤ 0.2
15,VITG,≤ 0.2
16,SLYA,≤ 0.2
17,CYFG,≤ 0.2
18,WMES,≤ 0.2
19,CALW,≤ 0.2
20,TFKH,≤ 0.2
21,TKCT,≤ 0.2
22,KYRC,≤ 0.2
23,YDTM,≤ 0.2
24,LIER,≤ 0.2

row,Variant,one-hybrid fitness for binding parS DNA
1,QDND,≤ 0.2
2,QHYY,≤ 0.2
3,HDTI,≤ 0.2
4,LEWT,≤ 0.2
5,PRWK,≤ 0.2
6,YDIF,≤ 0.2
7,YNGI,≤ 0.2
8,AGRY,≤ 0.2
9,GKIG,≤ 0.2
10,FMRT,≤ 0.2
11,NAVK,≤ 0.2
12,RHRM,0.277
13,IAGG,≤ 0.2
14,AGDY,≤ 0.2
15,SDPP,≤ 0.2
16,GRMC,≤ 0.2
17,DLHA,≤ 0.2
18,RVSQ,≤ 0.2
19,LEHC,≤ 0.2
20,KPAS,≤ 0.2
21,PSVG,≤ 0.2
22,HHCA,≤ 0.2
23,AKRS,≤ 0.2
24,VGPK,≤ 0.2

row,Variant,one-hybrid fitness for binding parS DNA
1,ISGK,≤ 0.2
2,AHRG,≤ 0.2
3,QLKV,≤ 0.2
4,DMNG,≤ 0.2
5,CSAF,≤ 0.2
6,SCRG,≤ 0.2
7,HISR,≤ 0.2
8,HETV,≤ 0.2
9,VSWV,≤ 0.2
10,EDKW,≤ 0.2
11,HRKV,≤ 0.2
12,CVQW,≤ 0.2
13,QNET,≤ 0.2
14,RFDR,≤ 0.2
15,QVEL,≤ 0.2
16,RHGV,≤ 0.2
17,SSLM,≤ 0.2
18,YKKS,≤ 0.2
19,REYQ,≤ 0.2
20,HHKV,≤ 0.2
21,TKPW,≤ 0.2
22,RRRF,≤ 0.2
23,QPDL,≤ 0.2
24,TWWE,≤ 0.2

row,Variant,one-hybrid fitness for binding parS DNA
1,HMKI,≤ 0.2
2,TGQG,≤ 0.2
3,CLWT,≤ 0.2
4,RYEM,0.275
5,QGNR,≤ 0.2
6,PSVW,≤ 0.2
7,NWAE,≤ 0.2
8,HMTC,≤ 0.2
9,TCRV,≤ 0.2
10,LANN,≤ 0.2
11,NTSC,≤ 0.2
12,LLCV,≤ 0.2
13,LCRN,≤ 0.2
14,THEQ,≤ 0.2
15,FRAR,≤ 0.2
16,PSFR,≤ 0.2
17,LDNN,0.346
18,TSVQ,≤ 0.2
